These are yes or no findings as the source states them, for the method shown. In cells and extracts the contact can be indirect. Some results given as binding are weak or reduced against the parent protein; the word gives no strength.
T1: EBNA3A, full-length, expressed in HEK293T cells (Epstein–Barr virus) (UniProt P12977)
T1 sequence: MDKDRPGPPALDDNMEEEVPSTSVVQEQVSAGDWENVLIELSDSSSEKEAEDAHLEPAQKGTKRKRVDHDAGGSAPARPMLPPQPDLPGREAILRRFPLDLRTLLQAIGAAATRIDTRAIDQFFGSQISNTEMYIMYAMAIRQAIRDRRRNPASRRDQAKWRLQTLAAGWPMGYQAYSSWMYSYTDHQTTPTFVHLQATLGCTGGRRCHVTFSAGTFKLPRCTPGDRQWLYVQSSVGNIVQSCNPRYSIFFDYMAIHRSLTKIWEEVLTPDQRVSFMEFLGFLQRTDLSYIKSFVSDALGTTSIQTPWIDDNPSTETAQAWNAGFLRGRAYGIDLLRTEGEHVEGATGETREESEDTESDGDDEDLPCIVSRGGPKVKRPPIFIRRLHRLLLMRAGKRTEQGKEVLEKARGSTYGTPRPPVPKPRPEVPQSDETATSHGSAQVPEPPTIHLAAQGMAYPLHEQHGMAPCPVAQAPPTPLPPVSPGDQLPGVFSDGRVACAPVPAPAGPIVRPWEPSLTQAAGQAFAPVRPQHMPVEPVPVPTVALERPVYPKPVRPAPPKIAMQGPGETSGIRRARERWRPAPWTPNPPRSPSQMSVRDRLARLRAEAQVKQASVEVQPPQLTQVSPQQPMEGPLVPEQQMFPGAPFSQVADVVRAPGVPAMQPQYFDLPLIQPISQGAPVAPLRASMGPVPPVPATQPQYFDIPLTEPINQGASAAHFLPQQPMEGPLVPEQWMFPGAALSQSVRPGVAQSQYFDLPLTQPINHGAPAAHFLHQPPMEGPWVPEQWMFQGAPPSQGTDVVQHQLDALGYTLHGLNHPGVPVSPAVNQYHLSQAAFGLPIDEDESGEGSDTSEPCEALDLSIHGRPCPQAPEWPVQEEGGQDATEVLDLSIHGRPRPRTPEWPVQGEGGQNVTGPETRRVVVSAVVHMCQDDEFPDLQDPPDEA


Assays:
[1] = molecular target: GST-MIZ-1 383–803 (human) (UniProt Q13105); experiment: pull-down; GST or GST fusion on glutathione-Sepharose 4B beads incubated with 35S-labeled in vitro translated protein; 10 mM Tris-HCl pH 8, 250 mM NaCl, 0.1% NP40, 2 mg/ml BSA, 4 h at 4°C; autoradiography; only the target purified
[2] = molecular target: T1, EBNA3A, full-length, expressed in HEK293T cells (Epstein–Barr virus); experiment: co-IP; HEK293T cells transfected with expression plasmids for full-length proteins; IP buffer 50 mM Tris-HCl pH 7.5, 150–300 mM NaCl, 1 mM DTT, 0.5% Nonidet P-40; which partner was precipitated is not told
[3] = molecular target: EBNA3B, full-length, expressed in HEK293T cells (Epstein–Barr virus) (UniProt P03203); experiment: as above
[4] = molecular target: EBNA3C, full-length, expressed in HEK293T cells (Epstein–Barr virus) (UniProt P03204); experiment: as above

Molecule | binding [1] | binding [2] | binding [3] | binding [4]
35S-labeled EBNA3C, in vitro translated (from UniProt P03204 1-992) | binds | – | – | –
35S-labeled EBNA3B, in vitro translated (from UniProt P03203 1-938) | binds | – | – | –
EBNA3A 1–172 (deletion mutant) (from UniProt P12977 1-172) (domain or fragment) | no binding | – | – | –
Importin 5, full-length, expressed in HEK293T cells (protein, UniProt O00410 1-1097) MAAAAAEQQQFYLLLGNLLSPDNVVRKQAEETYENIPGQSKITFLLQAIRNTTAAEEARQMAAVLLRRLLSSAFDEVYPALPSDVQTAIKSELLMIIQMETQSSMRKKVCDIAAELARNLIDEDGNNQWPEGLKFLFDSVSSQNVGLREAALHIFWNFPGIFGNQQQHYLDVIKRMLVQCMQDQEHPSIRTLSARATAAFILANEHNVALFKHFADLLPGFLQAVNDSCYQNDDSVLKSLVEIADTVPKYLRPHLEATLQLSLKLCGDTSLNNMQRQLALEVIVTLSETAAAMLRKHTNIVAQTIPQMLAMMVDLEEDEDWANADELEDDDFDSNAVAGESALDRMACGLGGKLVLPMIKEHIMQMLQNPDWKYRHAGLMALSAIGEGCHQQMEGILNEIVNFVLLFLQDPHPRVRYAACNAVGQMATDFAPGFQKKFHEKVIAALLQTMEDQGNQRVQAHAAAALINFTEDCPKSLLIPYLDNLVKHLHSIMVLKLQELIQKGTKLVLEQVVTSIASVADTAEEKFVPYYDLFMPSLKHIVENAVQKELRLLRGKTIECISLIGLAVGKEKFMQDASDVMQLLLKTQTDFNDMEDDDPQISYMISAWARMCKILGKEFQQYLPVVMGPLMKTASIKPEVALLDTQDMENMSDDDGWEFVNLGDQQSFGIKTAGLEEKSTACQMLVCYAKELKEGFVEYTEQVVKLMVPLLKFYFHDGVRVAAAESMPLLLECARVRGPEYLTQMWHFMCDALIKAIGTEPDSDVLSEIMHSFAKCIEVMGDGCLNNEHFEELGGILKAKLEEHFKNQELRQVKRQDEDYDEQVEESLQDEDDNDVYILTKVSDILHSIFSSYKEKVLPWFEQLLPLIVNLICPHRPWPDRQWGLCIFDDVIEHCSPASFKYAEYFLRPMLQYVCDNSPEVRQAAAYGLGVMAQYGGDNYRPFCTEALPLLVRVIQSADSKTKENVNATENCISAVGKIMKFKPDCVNVEEVLPHWLSWLPLHEDKEEAVQTFNYLCDLIESNHPIVLGPNNTNLPKIFSIIAEGEMHEAIKHEDPCAKRLANVVRQVQTSGGLWTECIAQLSPEQQAAIQELLNSA | – | binds | binds | binds
35S-labeled EBNA3A, in vitro translated (protein, UniProt P12977 1-944, 35S-methionine) MDKDRPGPPALDDNMEEEVPSTSVVQEQVSAGDWENVLIELSDSSSEKEAEDAHLEPAQKGTKRKRVDHDAGGSAPARPMLPPQPDLPGREAILRRFPLDLRTLLQAIGAAATRIDTRAIDQFFGSQISNTEMYIMYAMAIRQAIRDRRRNPASRRDQAKWRLQTLAAGWPMGYQAYSSWMYSYTDHQTTPTFVHLQATLGCTGGRRCHVTFSAGTFKLPRCTPGDRQWLYVQSSVGNIVQSCNPRYSIFFDYMAIHRSLTKIWEEVLTPDQRVSFMEFLGFLQRTDLSYIKSFVSDALGTTSIQTPWIDDNPSTETAQAWNAGFLRGRAYGIDLLRTEGEHVEGATGETREESEDTESDGDDEDLPCIVSRGGPKVKRPPIFIRRLHRLLLMRAGKRTEQGKEVLEKARGSTYGTPRPPVPKPRPEVPQSDETATSHGSAQVPEPPTIHLAAQGMAYPLHEQHGMAPCPVAQAPPTPLPPVSPGDQLPGVFSDGRVACAPVPAPAGPIVRPWEPSLTQAAGQAFAPVRPQHMPVEPVPVPTVALERPVYPKPVRPAPPKIAMQGPGETSGIRRARERWRPAPWTPNPPRSPSQMSVRDRLARLRAEAQVKQASVEVQPPQLTQVSPQQPMEGPLVPEQQMFPGAPFSQVADVVRAPGVPAMQPQYFDLPLIQPISQGAPVAPLRASMGPVPPVPATQPQYFDIPLTEPINQGASAAHFLPQQPMEGPLVPEQWMFPGAALSQSVRPGVAQSQYFDLPLTQPINHGAPAAHFLHQPPMEGPWVPEQWMFQGAPPSQGTDVVQHQLDALGYTLHGLNHPGVPVSPAVNQYHLSQAAFGLPIDEDESGEGSDTSEPCEALDLSIHGRPCPQAPEWPVQEEGGQDATEVLDLSIHGRPRPRTPEWPVQGEGGQNVTGPETRRVVVSAVVHMCQDDEFPDLQDPPDEA | binds | – | – | –
Mediator complex subunit 25, full-length, expressed in HEK293T cells (protein, UniProt Q71SY5 1-747) MVPGSEGPARAGSVVADVVFVIEGTANLGPYFEGLRKHYLLPAIEYFNGGPPAETDFGGDYGGTQYSLVVFNTVDCAPESYVQCHAPTSSAYEFVTWLDGIKFMGGGGESCSLIAEGLSTALQLFDDFKKMREQIGQTHRVCLLICNSPPYLLPAVESTTYSGCTTENLVQQIGERGIHFSIVSPRKLPALRLLFEKAAPPALLEPLQPPTDVSQDPRHMVLVRGLVLPVGGGSAPGPLQSKQPVPLPPAAPSGATLSAAPQQPLPPVPPQYQVPGNLSAAQVAAQNAVEAAKNQKAGLGPRFSPITPLQQAAPGVGPPFSQAPAPQLPPGPPGAPKPPPASQPSLVSTVAPGSGLAPTAQPGAPSMAGTVAPGGVSGPSPAQLGAPALGGQQSVSNKLLAWSGVLEWQEKPKPASVDANTKLTRSLPCQVYVNHGENLKTEQWPQKLIMQLIPQQLLTTLGPLFRNSRMVQFHFTNKDLESLKGLYRIMGNGFAGCVHFPHTAPCEVRVLMLLYSSKKKIFMGLIPYDQSGFVNGIRQVITNHKQVQQQKLEQQQRGMGGQQAPPGLGPILEDQARPSQNLLQLRPPQPQPQGTVGASGATGQPQPQGTAQPPPGAPQGPPGAASGPPPPGPILRPQNPGANPQLRSLLLNPPPPQTGVPPPQASLHHLQPPGAPALLPPPHQGLGQPQLGPPLLHPPPAQSWPAQLPPRAPLPGQMLLSGGPRGPVPQPGLQPSVMEDDILMDLI | – | binds | binds | binds
Protein phosphatase 5, catalytic subunit, full-length, expressed in HEK293T cells (protein, UniProt P53041 1-499) MAMAEGERTECAEPPRDEPPADGALKRAEELKTQANDYFKAKDYENAIKFYSQAIELNPSNAIYYGNRSLAYLRTECYGYALGDATRAIELDKKYIKGYYRRAASNMALGKFRAALRDYETVVKVKPHDKDAKMKYQECNKIVKQKAFERAIAGDEHKRSVVDSLDIESMTIEDEYSGPKLEDGKVTISFMKELMQWYKDQKKLHRKCAYQILVQVKEVLSKLSTLVETTLKETEKITVCGDTHGQFYDLLNIFELNGLPSETNPYIFNGDFVDRGSFSVEVILTLFGFKLLYPDHFHLLRGNHETDNMNQIYGFEGEVKAKYTAQMYELFSEVFEWLPLAQCINGKVLIMHGGLFSEDGVTLDDIRKIERNRQPPDSGPMCDLLWSDPQPQNGRSISKRGVSCQFGPDVTKAFLEENNLDYIIRSHEVKAEGYEVAHGGRCVTVFSAPNYCDQMGNKASYIHLQGSDLRPQFHQFTAVPHPNVKPMAYANTLLQLGMM | – | binds | binds | binds
SNAP-associated protein, full-length, expressed in HEK293T cells (protein, UniProt O95295 1-136) MAGAGSAAVSGAGTPVAGPTGRDLFAEGLLEFLRPAVQQLDSHVHAVRESQVELREQIDNLATELCRINEDQKVALDLDPYVKKLLNARRRVVLVNNILQNAQERLRRLNHSVAKETARRRAMLDSGIYPPGSPGK | – | binds | binds | binds

— article PMC4150796
